Assay results published in the supplement of paper PMC12645437, “Orthogonal IMiD-Degron Pairs Induce Selective Protein Degradation in Cells” (ACS Chemical Biology, 2025).
The list shows a part of the results.

B1: Q9UKT9 (peptide)
chain: FFCNQCGARFTQKGNLLRHIKL
B2: Q9UKT9 (peptide)
chain: FRCSVCGHDFTQKGNLLRHIKL
B3: Q9UKT9 (peptide)
chain: FWCNQCGHHFTQKGNLLRHIKL
B4: Q9UKT9 (peptide)
chain: FYCNQCGADFTQKGNLLRHIKL
B5: Q9UKT9 (peptide)
chain: FNCNQCGAWFTQKGNLLRHIKL
B6: Q9UKT9 (peptide)
chain: FCCDQCGASFTQKGNLLRHIKL
B7: Q9UKT9 (peptide)
chain: LMCPICGFFCTQKGNLLRHIKL
B8: Q9UKT9 (peptide)
chain: LYCPICGFSCTQKGNLLRHIKL
B9: Q9UKT9 (peptide)
chain: FYCNQCGHVFTQKGNLLRHIKL
B10: Q9UKT9 (peptide)
chain: FMCNQCGRRFTQKGNLLRHIKL
B11: Q9UKT9 (peptide)
chain: FLCNVCGADFTQKGNLLRHIKL
B12: Q9UKT9 (peptide)
chain: FYCPICGHCFTQKGNLLRHIKL
B13: Q9UKT9 (peptide)
chain: FTCNQCGRCFTQKGNLLRHIKL
B14: Q9UKT9 (peptide)
chain: FECNQCGHMFTQKGNLLRHIKL
B15: Q9UKT9 (peptide)
chain: FWCPQCGAKFTQKGNLLRHIKL
B16: Q9UKT9 (peptide)
chain: LGCEICGFFCTQKGNLLRHIKL
B17: Q9UKT9 (peptide)
chain: FTCEICGHEFTQKGNLLRHIKL
B18: Q9UKT9 (peptide)
chain: FMCNICGASFTQKGNLLRHIKL
B19: Q9UKT9 (peptide)
chain: FGCNQCGHDFTQKGNLLRHIKL
B20: Q9UKT9 (peptide)
chain: FLCSVCGHRFTQKGNLLRHIKL
B21: Q9UKT9 (peptide)
chain: FGCPICGHSFTQKGNLLRHIKL
B22: Q9UKT9 (peptide)
chain: FWCPICGAHFTQKGNLLRHIKL
B23: Q9UKT9 (peptide)
chain: LACEICGFHCTQKGNLLRHIKL
B24: Q9UKT9 (peptide)
chain: FDCPICGAGFTQKGNLLRHIKL
B25: Q9UKT9 (peptide)
chain: FCCPICGARFTQKGNLLRHIKL
B26: Q9UKT9 (peptide)
chain: FTCPICGRDFTQKGNLLRHIKL
B27: Q9UKT9 (peptide)
chain: LYCNQCGFICTQKGNLLRHIKL
B28: Q9UKT9 (peptide)
chain: FSCEVCGARFTQKGNLLRHIKL
B29: Q9UKT9 (peptide)
chain: FLCPICGRPFTQKGNLLRHIKL
B30: Q9UKT9 (peptide)
chain: FACNQCGHYFTQKGNLLRHIKL
B31: Q9UKT9 (peptide)
chain: FDCNICGAAFTQKGNLLRHIKL
B32: Q9UKT9 (peptide)
chain: FLCPICGRQFTQKGNLLRHIKL

biological target: no compound (DMSO); experiment: log2 fold change of degron read counts, EGFP-low vs EGFP+ sorted cells; higher = lower degron-EGFP level without compound (poor expression or instability); settings: compound: DMSO control; 18 h
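Note: jurkat cells carrying a lentiviral library of mutant zinc finger degrons fused to EGFP plus mCherry, mCherry+ cells FACS sorted, degron abundance counted by next-generation sequencing.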

| Sequence | log2 fold change of degron read counts |
| --- | --- |
| B1 | 0.61 |
| B2 | -1.12 |
| B3 | 1.66 |
| B4 | -0.467 |
| B5 | 0.255 |
| B6 | -3.38 |
| B7 | 2.11 |
| B8 | 1.09 |
| B9 | 0.738 |
| B10 | -0.186 |
| B11 | -1.8 |
| B12 | 0.16 |
| B13 | -0.341 |
| B14 | -0.688 |
| B15 | -0.646 |
| B16 | 1.94 |

| Sequence | log2 fold change of degron read counts |
| --- | --- |
| B17 | -1.53 |
| B18 | -0.905 |
| B19 | 0.677 |
| B20 | -0.352 |
| B21 | -0.375 |
| B22 | 0.848 |
| B23 | 0.313 |
| B24 | -0.887 |
| B25 | 0.0499 |
| B26 | -0.583 |
| B27 | 1.83 |
| B28 | -1.55 |
| B29 | -0.623 |
| B30 | 0.586 |
| B31 | -0.75 |
| B32 | -0.0442 |
